PubChem BioAssay AID2675 (National Center for Advancing Translational Sciences (NCATS), 2010)
The whole screen tested about 280,000 compounds, of which about 100 (0.036%) were called active. This list was built around the results that the source calls inconclusive (neither active nor inactive); the mix of calls is not that of the screen. Calls come from the whole dose curve; as a rule, active = well fitted inhibition curve with a large enough effect in the signal ratio, with a control signal flat (not every such curve was filed as active); inconclusive = small, poorly fitted or top-dose-only effect, or effect the other way, or a change in a side signal; inactive = no such curve, though single readings can be large or run the other way; the % refers to the signal ratio. Where the call is inconclusive, the potency comes from a doubtful curve fit. A note “side channel” means that the fit belongs to a control or component signal, not to the main read-out.
% is set by controls: 0 for no effect and ±100 for the full control effect; potency is the fitted concentration of half-maximal effect; tags give direction and shape of the fitted curve or compound fluorescence and quenching.

These compounds were tested against Muscleblind-like protein 1 (Homo sapiens) (UniProt Q9NR56) (assay: qHTS Assay for Inhibitors of MBNL1-poly(CUG) RNA binding). Settings: TR-FRET MBNL1-His/biotin-(CUG)12 binding, 665/545 ratio; activity change, negative = inhibition: at 57.5 µM (top of the series).
Chain of UniProt Q9NR56 (Q9NR56 whole entry, looked up): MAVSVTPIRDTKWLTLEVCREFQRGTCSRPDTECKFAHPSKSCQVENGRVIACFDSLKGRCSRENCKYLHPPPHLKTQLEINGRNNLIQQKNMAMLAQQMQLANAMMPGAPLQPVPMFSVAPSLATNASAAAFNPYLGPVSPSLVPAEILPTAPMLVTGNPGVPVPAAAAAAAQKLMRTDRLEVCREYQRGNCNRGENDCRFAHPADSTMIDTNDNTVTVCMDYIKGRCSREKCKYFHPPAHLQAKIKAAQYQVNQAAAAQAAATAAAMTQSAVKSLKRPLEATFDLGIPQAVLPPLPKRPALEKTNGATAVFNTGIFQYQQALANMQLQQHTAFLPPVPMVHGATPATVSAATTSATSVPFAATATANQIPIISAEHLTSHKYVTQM
Summary of the method: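 Compounds (final 92 nM to 58 uM) are added to His-tagged MBNL1 and biotin-(CUG)12, then terbium anti-His antibody and streptavidin-XL665 (5 nM final). After 60 min at room temperature, the 665/545 nm ratio is read.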
With O=C(O)c1cc(NN=Nc2cccc(S(=O)(=O)O)c2)cc([N+](=O)[O-])c1 the Potency was inconclusive: 28.2 µM [quencher, partial curve]. COCCn1c(=O)[nH]c2cc(C(=O)NCc3ccccc3)ccc2c1=O was tested, and the “activity change, negative = inhibition” value was inactive: -3.5%. With CC(NC(=O)CCNS(=O)(=O)c1cccc2nonc12)c1ccccc1 (stereo not drawn) the Potency was inconclusive: 14.1 µM [quencher, side channel, partial curve]. Cc1cc(C)nc(N/N=C/c2ccccc2OCc2ccc(Cl)cc2)n1 was tested, and the Potency was inconclusive: 39.8 µM [fluorescent, side channel, partial curve]. Cc1cc(C)c2cc(C=O)c(Cl)nc2c1 was tested, and the Potency was inconclusive: 22.4 µM [quencher, side channel, single point]. O=C(O)c1cc([N+](=O)[O-])ccc1NCCc1ccccc1 was tested, and the Potency was inconclusive: 25.1 µM [quencher, partial curve]. O=C(NC1CCSc2ccccc21)c1cccc([N+](=O)[O-])c1 (stereo not drawn) was tested, and the Potency was inconclusive: 10 µM [quencher, side channel, partial curve]. CCOc1ccc2ccccc2c1C1NC(=O)N(C)C(C)=C1C(=O)OCCOC (stereo not drawn) was tested, and the “activity change, negative = inhibition” value was inactive: 4.42%. With Cc1onc(-c2ccccc2)c1C(=O)Nc1ncc([N+](=O)[O-])s1 the Potency was inconclusive: 28.2 µM [quencher, side channel, partial curve]. CCOc1cc(CNc2ccc(N3CCCCC3)cc2)cc(Br)c1OCC(=O)NC(C)(C)C was tested, and the “activity change, negative = inhibition” value was inactive: 1.63%. For CN1CCN(C(=O)c2cc3nc(-c4ccccc4)cc(C(F)(F)F)n3n2)CC1, the Potency was inconclusive: 20 µM [quencher, side channel, partial curve]. For N#Cc1cc2cc3c(cc2nc1NCCNC(=S)NCCCN1CCOCC1)OCO3, the Potency was inconclusive: 28.2 µM [quencher, side channel, partial curve]. For Nc1nnc(CC(=O)N/N=C/c2ccc(-c3cccc(C(=O)O)c3)o2)s1, the Potency was inconclusive: 25.1 µM [quencher, side channel, partial curve]. For NC(=O)c1cc2ccccc2oc1=NCc1ccccc1, the Potency was inconclusive: 17.8 µM [quencher, side channel, partial curve]. In the case of NC(=O)[C@H]1CC2(CC(c3cccc(NC(=O)[C@H]4CCC(=O)N4)c3)=NO2)CN1C(=O)c1cc([N+](=O)[O-])cc([N+](=O)[O-])c1 (stereo partly drawn), the Potency is reported as inconclusive: 14.1 µM [quencher, side channel, partial curve]. With CCOC(=O)c1c(/N=C/c2cc(OC)cc([N+](=O)[O-])c2O)sc(C)c1C the Potency was inconclusive: 15.8 µM [quencher, side channel, partial curve]. In the case of COc1ccc(-c2[nH]ncc2/C=N/NC(=O)c2ccc(Br)cc2)c(OC)c1, the Potency is reported as inconclusive: 0.1 µM [fluorescent, side channel, full curve]. With CCOCCCNC(=O)c1c(N)n(-c2ccc(S(N)(=O)=O)cc2)c2nc3ccccc3nc12 the Potency was inconclusive: 7.94 µM [quencher, partial curve]. With CC(=O)Oc1c(Cl)c(N2CCOCC2)c(OC(C)=O)c2ccccc12 the “activity change, negative = inhibition” value was inactive: 12.9%. With CCC1(C)Cc2c(C#N)c(N)sc(=S)c2CO1 (stereo not drawn) the Potency was inconclusive: 25.1 µM [quencher, side channel, partial curve]. COC(=O)CCC(=O)OC1(C)C(=O)C=C2C=C(C3CC3)N(C3CCCCC3)C=C2C1=O (stereo not drawn) was tested, and the Potency was inconclusive: 39.8 µM [quencher, side channel, single point]. For COC(=O)c1ccc(-c2ccco2)n1Cc1ccccc1Cl, the “activity change, negative = inhibition” value was inactive: -6.48%. For COc1ccc(C)cc1S(=O)(=O)Nc1ccc(F)c(Cl)c1, the Potency was active: 25.1 µM. With CC(C)CCNC(=O)c1cnn2c(C(F)(F)F)cc(-c3ccco3)nc12 the Potency was inconclusive: 28.2 µM [quencher, side channel, partial curve]. In the case of C[C@H](NS(=O)(=O)c1ccc(Cl)cc1)C(=O)OCC(=O)NC(=O)Nc1ccc2c(c1)OCCO2, the Potency is reported as inconclusive: 4.47 µM [quencher, side channel, full curve, poor fit]. COc1ccc(CCNC(=O)C2CCCN(S(=O)(=O)c3cccc4nonc34)C2)cc1OC (stereo not drawn) was tested, and the Potency was inconclusive: 15.8 µM [quencher, side channel, partial curve]. With CN=c1scc(C)n1/N=C/c1ccc(O)cc1O the Potency was inconclusive: 28.2 µM [quencher, side channel, single point]. In the case of O=C(/C=C/c1cccs1)NCc1ccccc1, the Potency is reported as inconclusive: 31.6 µM [quencher, side channel, single point]. For Cc1cc(C)c(C(N)=O)c(SCC(=O)c2cc(C)c(C)cc2C)n1, the Potency was inconclusive: 0.316 µM [fluorescent, side channel, partial curve]. In the case of O=C(/C=C/c1ccc([N+](=O)[O-])cc1)Nc1cccnc1, the Potency is reported as inconclusive: 11.2 µM [quencher, side channel, partial curve]. CCOc1cc(/C=C2\SC(=O)N(c3ccc(O)cc3)C2=O)ccc1O was tested, and the Potency was inconclusive: 22.4 µM [quencher, side channel, single point]. In the case of Cc1cccn2c(=O)c3cc(C(N)=S)c(=N)n(CCCN4CCOCC4)c3nc12, the Potency is reported as inconclusive: 10 µM [quencher, side channel, partial curve]. With O=C(Nc1ccc(Cl)c([N+](=O)[O-])c1)c1ccc(NCCCN2CCOCC2)c([N+](=O)[O-])c1 the “activity change, negative = inhibition” value was inactive: 12.1%. CC(=O)C1=C(O)C(=O)N(c2ccc(Br)cc2)C1c1cccc([N+](=O)[O-])c1 (stereo not drawn) was tested, and the Potency was inconclusive: 28.2 µM [quencher, side channel, single point]. With NS(=O)(=O)c1ccc(N2CCCCCC2)c([N+](=O)[O-])c1 the Potency was inconclusive: 25.1 µM [quencher, side channel, partial curve]. For COc1ccc(Nc2nc(-c3cccc(OC)c3O)nc3ccccc23)cc1, the “activity change, negative = inhibition” value was inactive: 4.72%. With O=C(CCc1ccccc1)NNC(=S)NCc1ccc(Cl)cc1 the “activity change, negative = inhibition” value was inactive: -0.891%. With Cc1ccc2sc(-c3ccc(NC(=O)/C=C\C(=O)O)cc3)nc2c1 the Potency was inconclusive: 28.2 µM [quencher, side channel, partial curve].
